Measured values from paper PMC11369174 (Molecular Systems Biology, 2024).

Biological target: T1, FITC-NFE2L1 (also: FITC label, position not given here)
T1 chain: LLVDGETGESFPAQVP
Assay: fluorescence polarisation; saturation binding: dilution series of the protein domain added to 10 nM FITC-labelled peptide; 50 mM sodium phosphate pH 7.4, 0.05% Tween (protein dialysed in 50 mM sodium phosphate with 1 mM DTT; CASK kinase domain with 100 mM NaCl in addition); quadratic fit; technical triplets
Conditions: both partners purified

Kd: 8 nM
B1: Kelch-like ECH-associated protein (KEAP1) KELCH domain (domain or fragment)
chain: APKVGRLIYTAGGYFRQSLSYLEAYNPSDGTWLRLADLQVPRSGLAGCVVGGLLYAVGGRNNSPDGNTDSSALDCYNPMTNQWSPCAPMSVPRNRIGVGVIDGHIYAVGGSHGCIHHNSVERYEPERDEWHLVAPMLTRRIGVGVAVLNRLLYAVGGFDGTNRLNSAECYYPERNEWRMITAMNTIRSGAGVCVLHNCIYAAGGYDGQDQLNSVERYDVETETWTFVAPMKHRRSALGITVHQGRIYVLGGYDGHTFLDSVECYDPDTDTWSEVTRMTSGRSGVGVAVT

Where no end group is shown, it is not given here.
